The record followed here is PubChem BioAssay AID485344 (National Center for Advancing Translational Sciences (NCATS), 2010).

Values joined by “and” are separate entries in the source; they are usually repeats but may differ in a detail not shown here. Equal entries are not always repeated. The campaign covered roughly 340,000 compounds. About 6,900 (2%) were called active. Rule as the data show it: active = inhibition above about 30%; inactive = below that, where a call was filed. This is a selection; strong and weak results do not stand in their true shares. Where no call is shown, the source filed none.

The target of this assay is D(2) dopamine receptor (Homo sapiens) (UniProt P14416). Nature of the assay: HTS Assay for Allosteric Antagonists of the Human D2 Dopamine Receptor: Primary Screen for Antagonists. Also: 0% is about no effect. The note with it: HEK293 TREx D2 cells, calcium flux, dopamine EC80; at 10 µM; stronger effect = higher value. The gist of the method: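 Compounds are added to dye-loaded, induced HEK293 T-REx cells coupled to calcium release via D2; after a 3 min kinetic read an EC80 dopamine stimulus is given and fluorescence is recorded for 3 more min.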
UniProt P14416, sequence (P14416 whole entry, looked up): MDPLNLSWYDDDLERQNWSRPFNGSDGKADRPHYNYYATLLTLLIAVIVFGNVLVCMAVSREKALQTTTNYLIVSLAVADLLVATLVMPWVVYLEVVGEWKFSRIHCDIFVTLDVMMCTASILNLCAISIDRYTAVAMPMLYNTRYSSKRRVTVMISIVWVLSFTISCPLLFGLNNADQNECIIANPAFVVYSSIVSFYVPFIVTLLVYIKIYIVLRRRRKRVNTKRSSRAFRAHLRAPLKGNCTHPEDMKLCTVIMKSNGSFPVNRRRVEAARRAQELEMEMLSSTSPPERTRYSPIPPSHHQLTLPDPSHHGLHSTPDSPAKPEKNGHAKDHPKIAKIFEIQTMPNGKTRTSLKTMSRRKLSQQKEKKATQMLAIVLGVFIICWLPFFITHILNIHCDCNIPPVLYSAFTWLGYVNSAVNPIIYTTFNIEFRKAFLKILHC
(A change in cytosolic calcium serves as a functional read-out for many receptors and channels.)
By inhibition is commonly meant the drop in the measured response relative to a control, in per cent. Consider `Cc1ccc(-n2ncc3c(NCCCN(C)C)ncnc32)cc1Cl`, for which the inhibition came out at 13.2%. For the molecule `COc1ccc2c(CNCCc3ccco3)c(C(=O)O)n(Cc3ccc(C)cc3)c2c1`, the inhibition is -7.73%. For `COc1ccc(Nc2ncc3c(n2)CCN(Cc2sccc2C)C3)c(OC)c1`, the inhibition came out at 14.5%.

With `COc1ccc(OC)c(-c2cc(C(=O)Nc3c(C)nn(Cc4ccc(C)cc4)c3C)no2)c1`, the inhibition is -0.153%.

`COc1ccc(C(CNC(=O)c2oc3cc(Br)ccc3c2C)N2CCCCC2)cc1` (centres undefined): the inhibition was -17.8% and active: 61.5%. The value for `O=[N+]([O-])c1ccc(S(=O)(=O)N2CCn3cccc3C2c2ccc(Br)cc2)cc1` (centres undefined) was 10.8%; that for `Cc1ccccc1CNC(=O)C1CCCCN1S(=O)(=O)c1ccc(F)cc1` (centres undefined) was -7.54%; that for `Cc1ccc(-n2nc(C(=O)N(C)c3ccc(C)c(C)c3)c3c4ccccc4n(C)c3c2=O)cc1` was -0.365%.

Take `Cc1ccc(NC(=O)c2c(C)oc3ccc(O)c(CN4CCN(Cc5ccccc5)CC4)c23)cc1`: the inhibition is -6.6%.

Turning to `COc1ccc(CNC(=O)CCCn2ccc3cc(S(=O)(=O)N4CCCC4)ccc32)cc1`, the inhibition was -1.94%. Under `CCOc1cc(-c2nnc(SCC(=O)NC3CCCCC3)nc2-c2ccc(OC)c(OCC)c2)ccc1OC` stands 5.72%; under `CC(C)NC(=O)C1CCCN(c2ncnc3onc(-c4ccc(F)cc4)c23)C1` (centres undefined), -1.38%. Under `CCOc1ccccc1NC(=O)CCS(=O)(=O)c1ccc2c(c1)oc(=O)n2C` stands 10.4%; under `COc1cc(C2c3c(-c4c(C)cc(C)cc4O)n[nH]c3C(=O)N2Cc2ccco2)cc(OC)c1OC` (centres undefined), 2.98%; under `CCOC(=O)C(C)Sc1nnc2cc(C)c3ccccc3n12` (centres undefined), -3%. The value for `COc1ccc2oc(-c3cccc(NC(=O)c4cc([N+](=O)[O-])ccc4N4CCOCC4)c3)nc2c1` was -4.97%; that for `CCOC(=O)C1CCN(C(=O)c2cnn(-c3ccc(F)cc3)c2-n2cccc2)CC1` was 0.835%; that for `CCOC(=O)c1[nH]c2c(c1Cc1ccccc1)C(=O)CC(c1ccc(C(C)(C)C)cc1)C2` (centres undefined) was 16.3%. `Cc1ccc(Cn2c(CN3CCC(C(=O)O)CC3)cc3ccccc32)cc1`: the inhibition is -3.62%. The value for `CCc1ccc(NC(=O)CSc2nnc(CC)c(CC)n2)cc1` was -1.47%. Under `CCN(CC)S(=O)(=O)c1cc(-c2ccc(=O)n(C(C)C(=O)Nc3cccc(C#N)c3)n2)ccc1C` (centres undefined) stands -1.31%; under `Cc1cc(C)cc(N(CC(=O)Nc2c(C)cc(C)cc2C)S(=O)(=O)c2c(C)nn(C)c2C)c1`, 9.29%. Under `COc1ccc(C(=O)Nc2nc3c(s2)Cc2c(Br)ccc(OC)c2-3)cc1OC` stands 3.46%; under `COc1ccc(-n2c(SCC(=O)N3CCOCC3)nc(O)c(Cc3ccccc3)c2=O)cc1`, active: 42.9%. As for `CCN(CC)CCCNC(=O)c1sc2nc3n(c(=O)c2c1C)CCCCC3`, the inhibition was -16.2%. `CN(CC(=O)Nc1ccc(F)cc1F)S(=O)(=O)c1cccc2nsnc12`: the inhibition is -5.16%.

As for `COc1ccc(-c2noc(CSc3nnc(Cc4ccccc4)n3-c3ccc(F)cc3)n2)cc1`, the inhibition stood at 7.95%. For the molecule `CCN(CC)CCCNC(=O)c1ccc2c(c1)sc1nc(-c3ccc(C)cc3)cn12`, the inhibition amounted to 20.9%. The value for `CCOc1c(Cl)cc(CNc2ccc3[nH]c(=O)[nH]c3c2)cc1OC` was 9.5%; that for `COc1ccc(NC(=O)NC(C)c2c(-n3cccc3)sc(C)c2C)cc1OC` (centres undefined) was -8.96%. Under `COc1ccc(OC)c(CN2CCN(CCc3ccccc3)C(CCO)C2)c1` (centres undefined) stands active: 44.9%. For the molecule `CCCCOc1ccc(C(=O)Nc2cc(-c3cn4cccnc4n3)ccc2OC)cc1`, the inhibition was -18.8%. `COc1ccc(CCNS(=O)(=O)c2c(C)nc3sc(C)cn3c2=O)cc1OC`: the inhibition is -6.71%. For `Cc1cc(Nc2cccc(C(=O)O)c2)n2nc(C)nc2n1`, the inhibition is -27.5%. The value for `COc1ccc(CCNC(=O)c2ccc3c(c2)N=C(C)c2ccccc2S3)cc1OC` was -3.69%; that for `COc1ccc(-c2nc3ccccc3o2)cc1NC(=O)c1cccnc1` was -26.1%.

Consider `Cc1cccc(NC(=O)CN(C)S(=O)(=O)c2ccc3c(c2)c(=O)n(C)c(=O)n3C)c1C`, for which the inhibition is -15.7%. The value for `CCc1cccc(NC(=O)c2ccc3c(c2)N(Cc2cccc(Cl)c2)C(=O)c2ccccc2S3=O)c1` (centres undefined) was 3.42%; that for `CCOC(=O)c1c(-c2ccc(C)cc2)csc1NC(=O)c1cc(-c2ccc(OC)cc2)on1` was 13.3%; that for `CCOC(=O)C1=C(CC)Nc2ccccc2N=C1NC(=O)Nc1ccccc1OC` was active: 50.9%. Turning to `Cc1cccc(N(C)C(=O)CCS(=O)(=O)c2ccc3c(c2)n(C)c(=O)c(=O)n3C)c1`, the inhibition was -3.63%. Under `CCN(c1cccc(C)c1)S(=O)(=O)c1cc2c(cc1C)n(C)c(=O)c(=O)n2C` stands -3.02%; under `CCOc1cccc2sc(NC(=O)c3ccc(S(=O)(=O)N4CCCCC4C)cc3)nc12` (centres undefined), 19.5%. Regarding `CCOC(=O)c1c(C)[nH]c(C)c1S(=O)(=O)N1CCN(c2cc(Cl)ccc2C)CC1`, the inhibition is -22.1%. `O=C(c1cc(-c2ccc(Cl)cc2)n[nH]1)N1CCN(S(=O)(=O)c2ccc(Br)s2)CC1`: the inhibition is -1.04%. `Clc1ccccc1Cn1c(-c2cccs2)nc2ccccc21`: the inhibition was found to be 3.86%. On to `CCOc1ccc(NC(=O)c2sc(-n3nc(C)c(Cc4ccc(Cl)cc4)c3C)nc2C)cc1`, for which the inhibition was -7.95%. `Cc1nnc(NC(=O)c2nc(SC(C)C)ncc2Cl)s1`: the inhibition is -0.831%. In the case of `CCCCN(C)CCCNC(=O)c1cn(C)c2ccc(S(=O)(=O)N(C)C3CCCCC3)cc2c1=O`, the inhibition was active: 34.2%. Under `O=C(CN1CCc2cc3c(cc2C1)OCCCO3)Nc1c(F)cccc1F` stands active: 41.5%. The value for `Cc1cc(N2CCC(C(=O)Nc3ccc(F)cc3F)CC2)n2nc(C)c(-c3ccc(Cl)cc3)c2n1` was 24%; that for `CCOc1ccc(C(=O)Nc2ccc3nc(N(CC)CC)cc(C)c3c2)cc1` was 10.7%; that for `Cc1ccc(/C=C/C(=O)Nc2ccc3nc(N4CCC(C)CC4)cc(C)c3c2)cc1` was -0.442%. `Cn1c(=O)oc2cc(S(=O)(=O)NC(Cc3ccccc3)C(=O)Nc3ccc(F)c(Cl)c3)ccc21` (centres undefined): the inhibition was 4.05%.

For the molecule `COc1cccc(NS(=O)(=O)c2ccc3[nH]cc(C(=O)NC(C)c4ccccc4)c(=O)c3c2)c1` (centres undefined), the inhibition is 9.3%. The value for `CCOC(=O)C1CCN(Cc2cn3c(-c4ccc(OC)cc4)nnc3s2)CC1` was 5.42%; that for `Cc1cccc(NC(=O)c2cn(-c3ccccc3)nc2-c2ccccc2)c1C` was 11.1%; that for `Cc1ccccc1CN1CCCN(CC(=O)Nc2ccc(F)cc2)S1(=O)=O` was 2.04%. For the molecule `CCOC(=O)c1c(C)oc2nc(C)nc(NCCc3ccc(Cl)cc3)c12`, the inhibition came out at 3.38%.
